PubChem BioAssay AID504332 (National Center for Advancing Translational Sciences (NCATS), 2011)
The whole screen tested about 350,000 compounds, of which about 31,000 (8.9%) were called active. This list was built around the results that the source calls inconclusive (neither active nor inactive); the mix of calls is not that of the screen. Calls come from the whole dose curve; as a rule, active = well fitted inhibition curve with a large enough effect; inconclusive = small, poorly fitted or top-dose-only effect; inactive = no such curve, though single readings can be large or run the other way. Potencies beside an inconclusive call are fits to weak or partial responses and may not hold up.

molecular target: Histone-lysine N-methyltransferase EHMT2 (Homo sapiens) (UniProt Q96KQ7); experiment: qHTS Assay for Inhibitors of Histone Lysine Methyltransferase G9a; details: G9a H3K9 monomethylation, AlphaScreen, 2 h; activity, negative = inhibition: at 59 µM (top of the series) unless noted; note: nearly all actives have a fitted effect of over 75% in size
Sequence of UniProt Q96KQ7 (Q96KQ7 whole entry, looked up): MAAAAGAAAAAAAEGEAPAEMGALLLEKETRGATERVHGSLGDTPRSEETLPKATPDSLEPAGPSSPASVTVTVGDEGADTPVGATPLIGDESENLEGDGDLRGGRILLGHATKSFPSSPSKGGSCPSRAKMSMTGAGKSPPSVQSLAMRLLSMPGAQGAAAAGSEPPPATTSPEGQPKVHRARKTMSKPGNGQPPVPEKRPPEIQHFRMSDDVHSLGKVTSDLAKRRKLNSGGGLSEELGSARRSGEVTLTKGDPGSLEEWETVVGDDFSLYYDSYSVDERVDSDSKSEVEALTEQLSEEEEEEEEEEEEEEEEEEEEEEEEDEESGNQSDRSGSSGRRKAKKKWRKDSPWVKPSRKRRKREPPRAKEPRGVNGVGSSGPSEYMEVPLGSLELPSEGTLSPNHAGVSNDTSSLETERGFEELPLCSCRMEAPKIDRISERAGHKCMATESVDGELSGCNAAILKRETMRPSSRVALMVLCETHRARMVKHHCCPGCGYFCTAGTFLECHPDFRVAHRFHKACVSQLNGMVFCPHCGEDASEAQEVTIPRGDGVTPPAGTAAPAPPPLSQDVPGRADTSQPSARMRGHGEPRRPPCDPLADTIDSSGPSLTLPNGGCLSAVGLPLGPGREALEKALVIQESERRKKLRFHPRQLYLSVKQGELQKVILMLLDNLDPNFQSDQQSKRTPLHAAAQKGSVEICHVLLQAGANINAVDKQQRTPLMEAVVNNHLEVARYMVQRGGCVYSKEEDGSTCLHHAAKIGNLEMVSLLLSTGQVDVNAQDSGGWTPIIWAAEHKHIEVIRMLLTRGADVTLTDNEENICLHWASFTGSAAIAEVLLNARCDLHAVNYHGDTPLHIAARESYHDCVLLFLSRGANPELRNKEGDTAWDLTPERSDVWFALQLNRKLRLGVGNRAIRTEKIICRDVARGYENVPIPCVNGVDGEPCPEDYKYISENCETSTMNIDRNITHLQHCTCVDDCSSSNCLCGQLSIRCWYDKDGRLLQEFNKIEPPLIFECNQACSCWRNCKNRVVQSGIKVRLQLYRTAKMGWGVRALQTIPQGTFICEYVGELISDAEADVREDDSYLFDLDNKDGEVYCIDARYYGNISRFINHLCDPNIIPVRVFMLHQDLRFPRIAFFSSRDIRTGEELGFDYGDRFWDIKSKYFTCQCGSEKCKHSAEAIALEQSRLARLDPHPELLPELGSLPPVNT
Procedure, shortened: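 Quantitative HTS format: methyltransferase activity on a biotin-tagged H3K9 peptide is measured by AlphaScreen, using a rabbit anti-monomethyl-H3K9 antibody with streptavidin donor and anti-IgG acceptor beads. Final levels are 20 nM enzyme, 500 nM peptide, 20 uM SAM; 2 h RT.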
% is set by controls: 0 for no effect and ±100 for the full control effect; potency is the fitted concentration of half-maximal effect; tags give direction and shape of the fitted curve.

| SMILES | Potency | activity, negative = inhibition |
| --- | --- | --- |
| O=C(CC(c1ccccc1)C1CCCCC1=O)c1ccco1 (centres undefined) | inactive |  |
| CCOc1ccc(C(=O)CN2CCN(S(=O)(=O)c3ccc(Br)cc3)CC2)cc1 | active: 31.6 µM |  |
| O=C(CNCCc1ccc(Cl)cc1Cl)NCc1ccco1 | inconclusive: 56.2 µM [inhibitor, partial curve] |  |
| O=[N+]([O-])c1ccc(N2CCN(S(=O)(=O)c3ccccc3)CC2)cc1NCc1cccnc1 |  | inconclusive: -56.2% [inhibitor] [at 12.7 µM] |
| Cn1c(=O)[nH]c(=O)c2c1nc(N1CCCCC1)n2CC(O)COc1ccccc1 (centres undefined) | inactive |  |
| FC(F)(F)C(F)(F)c1nnc2ccc(-n3ccnc3)nn12 | inactive |  |
| O=C(O)CCn1c(-c2ccccc2)cc2c1CCCC2=O | active: 50.1 µM |  |
| Cc1ccc2c(c1)c1c(n2CC(O)CN2CCOCC2)CCCC1 (centres undefined) | inconclusive: 89.1 µM [inhibitor, single point] |  |
| COc1ccc(/C=C(\NC(=O)c2ccc([N+](=O)[O-])cc2)C(=O)NCCCN2CCOCC2)cc1 | inactive |  |
| Cc1ccccc1NC(=O)c1sc2nc(-c3cc4ccccc4oc3=O)[nH]c(=O)c2c1C | inactive |  |
| CCC(CC)C(=O)Nc1ccc(S(=O)(=O)N2CCC(c3nc4ccccc4s3)CC2)cc1 | inconclusive: 39.8 µM [inhibitor, partial curve, poor fit] |  |
| Cc1cc(C)c[n+](CC(=O)c2ccc(-c3ccccc3)cc2)c1 | active: 50.1 µM |  |
| COc1ccc(NC(=O)COc2ccc(N(C)S(=O)(=O)c3ccc(Cl)cc3)cc2)cc1 | inconclusive: 0.316 µM [inhibitor, full curve, poor fit] |  |
| O=C(O)CC12CC3CC(C1)CC(n1ncc(NCc4ccc(F)cc4Cl)c(Cl)c1=O)(C3)C2 | inconclusive: 56.2 µM [inhibitor, partial curve, poor fit] |  |
| Cc1ccccc1NC(=O)c1c(C)oc2ccc(O)c(CN3CCCCCC3)c12 | inactive |  |
| COc1ccccc1C1C(C#N)=C(N)Oc2c1oc(CO)cc2=O (centres undefined) | inactive |  |
| Cc1c(NC(=O)Nc2c(Cl)cccc2Cl)c(=O)n(-c2ccccc2)n1C | inactive |  |
| Cc1cccc2nc(CSc3nc4ccc([N+](=O)[O-])cc4[nH]3)c(Br)n12 | inconclusive: 20 µM [inhibitor, single point] |  |
| Cc1cccc(C(=O)n2c(=S)nc3cc(C)ccn32)c1 | active: 7.94 µM |  |
| COc1ccccc1CNC(=O)Cc1ccccc1 | inconclusive: 79.4 µM [inhibitor, single point] |  |
| COC(=O)c1ccccc1NC(=O)Cn1cnc2cc(C)c(C)cc21 | inconclusive: 89.1 µM [inhibitor, single point] |  |
| N#Cc1ccccc1NC(=O)COC(=O)c1c[nH]c2ccccc12 | inconclusive: 50.1 µM [inhibitor, partial curve, poor fit] |  |
| O=C(CSc1nnc2c(n1)[nH]c1ccccc12)Nc1ccc(S(=O)(=O)Nc2ncccn2)cc1 | inactive |  |

| SMILES | Potency | activity, negative = inhibition |
| --- | --- | --- |
| CSc1cnc2c(=O)n(C)c(=O)[nH]c2n1 | inactive |  |
| Cc1ccc(/C=C/C(=O)N2CC(=O)Nc3ccccc32)o1 | inconclusive: 20 µM [inhibitor, full curve, poor fit] |  |
| Nc1ccc2c(c1)N1CCN=C1S2 | active: 7.08 µM |  |
| Cc1ccc(NC(=O)CN(C)C(=O)CCC(=O)c2cccs2)cc1 | inconclusive: 25.1 µM [inhibitor, single point] |  |
| O=C(COc1ccccc1-c1nc(-c2ccccc2)no1)Nc1ccc([N+](=O)[O-])cc1 | inconclusive: 35.5 µM [inhibitor, single point] |  |
| Cc1cc(C)c2c(NC(=O)c3ccccc3Cl)c(C(=O)NCc3ccc(Cl)cc3)sc2n1 | inactive |  |
| CC(C)C(=O)N1CCC(n2nccc2NC(=O)CCOc2ccccc2)CC1 |  | inactive: 4.17% [at 0.501 µM] |
| O=C(CN1C(=O)c2ccc([N+](=O)[O-])cc2C1=O)Nc1ccccc1N1CCCC1 | inconclusive: 70.8 µM [inhibitor, single point] |  |
| Cc1ccc(CN(Cc2cccn2-c2nnc(N3CCCC3=O)s2)C(=O)Nc2ccccc2Cl)cc1 | inactive |  |
| CN1CCN(CCCNC(=O)c2ccc(/C=C3\Sc4ccccc4N(Cc4ccccc4F)C3=O)cc2)CC1 | inconclusive: 39.8 µM [inhibitor, single point] |  |
| CC(=O)c1cccc(NC(=O)Cn2ccn3nc(-c4ccccc4)cc3c2=O)c1 | inactive |  |
| Cc1ccc(S(=O)(=O)CCC(=O)Nc2ccc(S(=O)(=O)N(C)C)cc2)cc1 | inconclusive: 56.2 µM [inhibitor, partial curve] |  |
| CC(=O)N(C)c1ccc(N=Cc2c(O)ccc3ccccc23)cc1 | active: 3.98 µM |  |
| CCN(CC)C(=O)CSc1nc2c(sc(=S)n2Cc2ccco2)c(=O)n1-c1ccccc1 | inconclusive: 39.8 µM [inhibitor, partial curve, poor fit] |  |
| Cc1ccc(C)c(S(=O)(=O)N/N=C/c2ccc(C(=O)O)cc2)c1 | active: 35.5 µM |  |
| O=C(NCCCN1CCN(c2ccc(F)cc2)CC1)Nc1ccccc1Cl | inconclusive: 8.91 µM [inhibitor, partial curve, poor fit] |  |
| COc1ccc(C(=O)Nc2ccc(NC(C)=O)cc2)cc1S(=O)(=O)N1CCCC1 |  | inactive: 23.4% [at 12.7 µM] |
| Cc1cccc(Oc2ccc(NC(=O)C3CC=CCC3C(=O)O)cc2)c1 (centres undefined) | active: 44.7 µM |  |
| CCOC(=O)CC(NC(=O)Cn1nnc(-c2ccc(Cl)cc2)n1)c1ccc(OC)cc1 (centres undefined) | inconclusive: 6.31 µM [inhibitor, single point] |  |
| CCOc1cc(N2CCOCC2)c(OCC)cc1NC(=O)COc1ncnc2ccccc12 | inconclusive: 89.1 µM [inhibitor, single point] |  |
| COc1ccc(C(=O)Nc2ccc(N3CCN(C)CC3)cc2)cc1 | inconclusive: 50.1 µM [inhibitor, partial curve] |  |
| CCCCC(O)(c1ccc(CC)cc1)C(CN1CCOCC1)c1ccccc1 (centres undefined) | inconclusive: 89.1 µM [inhibitor, single point] |  |
| Cc1ccc(NC(=O)CN2C(=O)c3ccccc3C2=O)c(C)c1 | inconclusive: 100 µM [inhibitor, single point] |  |

| SMILES | Potency | activity, negative = inhibition |
| --- | --- | --- |
| CCC(=O)/C=C1\Sc2ccc(OC)cc2N1CC | active: 50.1 µM |  |
| CC(=O)OCCN(C)c1cc(SC(C)C)c2nonc2c1[N+](=O)[O-] | active: 50.1 µM |  |
| CCOc1cccc2sc(N3CCN(C(=O)c4ccco4)CC3)nc12 | inconclusive: 4.47 µM [inhibitor, single point] |  |
| COc1ccc(N2CCN(S(=O)(=O)c3ccc4c(c3)N(C(C)=O)CCO4)CC2)cc1 | inconclusive: 79.4 µM [inhibitor, single point] |  |
| COc1ccc(N(CC(=O)N2CCCCC2)S(=O)(=O)c2ccccc2)c(OC)c1 | inconclusive: 35.5 µM [inhibitor, single point] |  |
| COc1cc(-c2noc(-c3ccc(N4CCCCC4)c([N+](=O)[O-])c3)n2)cc(OC)c1OC | inconclusive: 31.6 µM [inhibitor, partial curve, poor fit] |  |
| C/C(=N\NC(=S)NCc1ccccc1)c1ccc(Cl)s1 | inconclusive: 89.1 µM [inhibitor, single point] |  |
| COc1ccc(CNC(=O)CNC(c2ccccc2)c2ccccc2)cc1OC | inactive |  |
| CC1CCCCN1CCn1c(=S)[nH]c2cc3c(cc2c1=O)OCO3 (centres undefined) | inconclusive: 70.8 µM [inhibitor, single point] |  |
| CCCCn1c(N)c(N(CCOC)C(=O)c2ccc(N(C)S(=O)(=O)c3ccc(C)cc3)cc2)c(=O)[nH]c1=O | inconclusive: 79.4 µM [inhibitor, single point] |  |
| COc1cc(NC(=O)c2ccccc2)c(OC)cc1NC(=O)CN1CCOCC1 | inconclusive: 39.8 µM [inhibitor, single point] |  |
| O=C(NCC1CCCO1)c1cc2c([nH]c3ccccc32)c(-c2ccc(F)cc2)n1 (centres undefined) |  | inactive: 6.78% [at 12.7 µM] |
| CC(=O)Nc1ccc(S(=O)(=O)N2CCN(Cc3cccnc3)CC2)cc1 | inconclusive: 2 µM [inhibitor, partial curve, poor fit] |  |
| CCS(=O)(=O)c1ccc2oc(SCC(=O)NC34CC5CC(CC(C5)C3)C4)nc2c1 | inactive |  |
| Cn1c(COc2ccccc2)nnc1SCC(=O)Nc1ccc(S(N)(=O)=O)cc1 | inconclusive: 89.1 µM [inhibitor, single point] |  |
| COc1ccc(C(=O)/C=C/c2cc(OC)c(O)c(OC)c2)c(F)c1 | active: 8.91 µM |  |
| O=C1C2CC=C(Cl)CC2C(=O)N1c1ncn[nH]1 (centres undefined) | inconclusive: 10 µM [inhibitor, partial curve, poor fit] |  |
| O=C(CSc1ccc(-c2cccs2)nn1)Nc1cccc(F)c1 | active: 17.8 µM |  |
| Cc1ccnc(NS(=O)(=O)c2ccc(NC(=O)/C=C/c3ccccc3)cc2)n1 | inconclusive: 89.1 µM [inhibitor, single point] |  |
| O=S(=O)(Nc1ccccc1)c1cccc2nsnc12 | inconclusive: 89.1 µM [inhibitor, single point] |  |
| O=C(O)CCN1C(=O)/C(=C\c2ccc(-c3nc4ccccc4s3)o2)SC1=S | inconclusive: 2.82 µM [inhibitor, full curve, poor fit] |  |
| CCOc1ccc(-c2ccc(/C=C3/C(=N)N4C=CSC4=NC3=O)o2)c([N+](=O)[O-])c1 | inconclusive: 89.1 µM [inhibitor, single point] |  |
| CCN1CCN(CCCNC(=O)c2ccc3c(c2)NC(=O)c2ccccc2S3)CC1 | inconclusive: 35.5 µM [inhibitor, single point] |  |
